Among all 44,000 compounds or so, about 340 (0.77%) were called active. Inconclusive results (about 5%) are left out. Calls come from the whole dose curve; as a rule, active = well fitted inhibition curve with a large enough effect; inconclusive = small, poorly fitted or top-dose-only effect; inactive = flat fitted curve, though single readings scatter. This is one part of the list.
Experiment: Acumen qHTS Assay for Inhibitors of the mTORC1 Signaling Pathway in MEF (Tsc2-/-, p53-/-) Cells: Sytravon; note: nearly all actives have a fitted effect of over 50% in size;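 for activity change, negative = inhibition: plate controls were DMSO for no effect and rapamycin for full effect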
Settings: phospho-rpS6 immunofluorescence/PI, 24 h; series mostly up to 38.3 µM; activity change, negative = inhibition: at the top concentration
Procedure, shortened: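 Readout is phospho-S6 Alexa 488 signal normalized to PI per well, reported as % active cells with thresholds set from rapamycin (7.5 nM) and DMSO controls. Cells: Tsc2-/-, p53-/- MEFs, 24 hrs compound at 37 C; PI cell number serves as viability.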
Potency is the fitted concentration of half-maximal effect.

| SMILES | activity change, negative = inhibition | Potency |
| --- | --- | --- |
| COC(=O)CN1C(=O)CSc2ccc(S(=O)(=O)Nc3cc(C)ccc3C)cc21 | inactive: -6.11% |  |
| CCc1nn2c(=O)cc(COC(=O)COc3ccc(OC)cc3)nc2s1 | inactive: 8.03% |  |
| COc1cccc(-n2c(=O)c3sc4ccccc4c3n(CC(=O)NC3CCCCC3)c2=O)c1 | inactive: -1.89% |  |
| Cc1c(NC(=O)c2ccc(-c3cccc([N+](=O)[O-])c3)o2)cccc1-c1nc2cc(Cl)ccc2o1 | inactive: -16.3% |  |
| CCOC(=O)c1cc2c(=O)n3ccccc3nc2n(CCOC)c1=NC(=O)c1c(-c2ccccc2Cl)noc1C | inactive: -2.01% |  |
| Cn1c(=O)oc2cc(S(=O)(=O)NCCC(=O)Nc3ccc(F)cc3F)ccc21 | inactive: -1.74% |  |
| Cc1cc(OCC(=O)Nc2ncn[nH]2)ccc1Cl | inactive: -0.694% |  |
| Cc1ccc(S(=O)(=O)N(CC(=O)Nc2ccc3c(c2)OCO3)c2cc(Cl)cc(Cl)c2)cc1 | inactive: -5.98% |  |
| CCN(CC)S(=O)(=O)c1ccc(OC)c(-n2cnnn2)c1 | inactive: -2.18% |  |
| O=C(NCCC1=CCCCC1)c1ccc2c(c1)N(Cc1cccc(Cl)c1)C(=O)c1ccccc1S2=O (stereo not given) | inactive: -3.19% |  |
| CC(C)CCNC(=O)Cc1ccc(NC(=O)N2CCCCc3ccccc32)cc1 | inactive: -13.5% |  |
| COc1ccc(CNC(=O)Cn2c(=O)nc(-c3ccccc3)c3ccccc32)cc1OC | inactive: 1.53% |  |
| CCCCC(=O)NC1CC(=O)N(c2ccc3c(c2)OCCO3)C1 (stereo not given) | inactive: -3.44% |  |
| Cc1nc2c(-c3ccc(F)cc3)c(C)nn2c(C)c1CCC(=O)N1CCN(c2ccccc2)CC1 | inactive: -3.54% |  |
| COC(=O)c1cc2oc3ccccc3c2n1Cc1nc(-c2ccc(Cl)cc2)oc1C | inactive: 0.216% |  |
| CCN(C(=O)Cn1nnc2sc3c(c2c1=O)CCC(C(C)(C)C)C3)c1cccc(C)c1 (stereo not given) | inactive: 4.28% |  |
| CCCCn1c(SCC(=O)c2ccccc2)nc2c(sc3ccccc32)c1=O | inactive: 4.27% |  |
| CCc1ccc(CNC(=O)c2nn(-c3ccc(C)cc3)c(=O)c3c2c2ccccc2n3C)cc1 | inactive: -0.862% |  |
| COc1cc(CCC(=O)NCc2ccc3c(c2)CCN3C(=O)c2ccccc2)cc(OC)c1OC | inactive: -4.22% |  |
| CCC1CN(S(=O)(=O)c2cc(-c3cc(C)no3)ccc2C)c2cc(C)ccc2O1 (stereo not given) | inactive: -10.3% |  |
| Cc1ccc(-n2nc3ccc(NC(=O)COc4ccccc4C)cc3n2)cc1 | inactive: 13% |  |
| COc1ccc(-c2nnc(SCC(=O)NCCc3ccc(OC)c(OC)c3)nc2-c2ccc(OC)cc2)cc1 | inactive: -7.97% |  |
| Cc1nc2cccnc2n1-c1cccc(C(=O)N2CCN(c3cccc(Cl)c3)CC2)c1 | inactive: -5.23% |  |
| Cc1ccc(C)c(N2CCN(S(=O)(=O)c3cc(-c4cc(C)no4)ccc3C)CC2)c1 | inactive: 1.58% |  |

| SMILES | activity change, negative = inhibition | Potency |
| --- | --- | --- |
| Cc1ccc(-c2nnc(Nc3cccc(Cl)c3)c3ccccc23)cc1S(=O)(=O)N1CCCCC1 | inactive: 3.58% |  |
| Cc1ccc(-n2nc(CO)c(C(=O)NCCCCc3ccccc3)n2)cc1C | inactive: 0.0534% |  |
| CSc1ccc(CCNC(=O)c2cc(C)nc3c2c(C)nn3-c2ccccc2)cc1 | inactive: -4.98% |  |
| O=C(CN1C(=O)C(c2ccc(F)cc2)=NC12CCCCCC2)Nc1ccccc1Cl | inactive: 0.617% |  |
| Cc1cc(C)c(NC(=O)Cn2nc(-c3ccncc3)ccc2=O)c(C)c1 | inactive: 5.21% |  |
| CCCn1c(=O)n(-c2ccccc2Cl)c(=O)c2sc3ccccc3c21 | inactive: 1.3% |  |
| CC1=Nc2cc(C(=O)NCc3ccccc3Cl)ccc2Sc2c(C)ccc(C)c21 | inactive: -16.6% |  |
| COc1ccc(C)cc1NC(=O)c1c2c(nc3ccccc13)C(=O)N(C1CCCCC1)C2 | inactive: -11.5% |  |
| Cc1ccc(Cl)cc1NC(=O)C(Cc1ccccc1)NS(=O)(=O)c1cccc2nsnc12 (stereo not given) | inactive: -14.2% |  |
| Cc1ccc(-c2cc3ncc(C(=O)c4cc(Cl)c(C)cc4O)cn3n2)cc1 | inactive: -4.7% |  |
| CCOc1ccc(Br)cc1C1C(C(=O)OC)=C(C)NC2=C1C(=O)c1ccccc12 (stereo not given) | inactive: 1.67% |  |
| CCN(C(=O)CSc1ncc2c(n1)-c1cc(Cl)ccc1N(Cc1ccccc1)S2(=O)=O)c1cccc(C)c1 | inactive: 8.29% |  |
| CCc1c(C)sc2c1CCN(C(=O)Nc1ccccc1C(=O)OC)C2c1ccc(OC)cc1 (stereo not given) | inactive: 0% |  |
| Cc1ccc(NS(=O)(=O)c2ccc3c(c2)CC(=O)N3)cc1Cl | inactive: 2.71% |  |
| COc1ccc(OC)c(C2Nc3c(C)cc(C)cc3-c3cc(C)nn32)c1 (stereo not given) | inactive: -13.1% |  |
| CCn1c(=O)cc(OCC(=O)N(C)c2ccc(OC)cc2)c2ccccc21 | inactive: -14.8% |  |
| O=C(NCc1ccc(Cl)cc1)C1=Cc2cc(Br)ccc2OC1 | inactive: 1.06% |  |
| CCOc1ccc(NC(=O)CN2C(=O)C(c3ccc(Cl)cc3)=NC2(C)C)cc1 | inactive: 2.44% |  |
| CCC(=O)N1CCc2cc(Br)cc(S(=O)(=O)N3CCCC(C(=O)Nc4cc(C)ccc4OC)C3)c21 (stereo not given) | inactive: -8.74% |  |
| Cc1ccc(Cl)cc1N1CCN(C(=O)c2cc3ccc4cccnc4c3[nH]2)CC1 | inactive: -24% |  |
| COc1cc(OC)c(NC(=O)c2c(N3CCCC3=O)c3cc(C)ccc3n2C)cc1Cl | inactive: 0% |  |
| COc1ccc(Cl)cc1C(=O)Nc1ccc2nc(Nc3cccc(Cl)c3)cc(C)c2c1 | inactive: -1.94% |  |
| CCCc1ccc(S(=O)(=O)N2CCC(c3nnc(-c4cccc(C)c4)o3)CC2)cc1 | inactive: -2.6% |  |
| CCOc1ccccc1NC(=O)Cn1ncc2c([nH]c3ccccc32)c1=O | inactive: -1.18% |  |

| SMILES | activity change, negative = inhibition | Potency |
| --- | --- | --- |
| CCn1c(=O)c2cc(C(=O)NCCCN3CCN(c4ccc(F)cc4)CC3)sc2c2ccccc21 | inactive: -2.77% |  |
| Cc1ccccc1OCC(=O)Nc1nnc(S(=O)(=O)N2CCCC2)s1 | inactive: 2.76% |  |
| CC(C)Oc1ccc(CNC(=O)c2ccc3c(c2)nc2n3CCCCC2)cc1 | inactive: -6.93% |  |
| COc1ccc(C2=C(C)C(=O)N(Cc3ccc(C(=O)NC(C)c4ccccc4)cc3)S2(=O)=O)cc1 (stereo not given) | inactive: -5.75% |  |
| CCOc1ccc(N2CC(c3nc4ccccc4n3CCCCOc3ccc(OC)cc3)CC2=O)cc1 (stereo not given) | inactive: -1.51% |  |
| Cc1cc(=O)n2nc(N3CCC(C(=O)Nc4c(C)cccc4C)CC3)sc2n1 | inactive: -13.2% |  |
| Cc1cccc(N2C(=O)CSC23C(=O)N(CC(=O)Nc2cccc(Cl)c2)c2ccccc23)c1 (stereo not given) | inactive: -4.66% |  |
| CC1CCN(S(=O)(=O)c2cc3c4c(c2)C(C)C(=O)N4CCC3)CC1 (stereo not given) | inactive: -0.043% |  |
| O=C(NC1CCCCCC1)C1c2ccccc2C(=O)N1Cc1ccc(F)cc1 (stereo not given) | inactive: -3.73% |  |
| COc1ccccc1CCN1COc2c(cc3c(C)c(C)c(=O)oc3c2C)C1 | inactive: -10.7% |  |
| COc1ccc(CNC(=O)CN2C(=O)CSc3ccc(S(=O)(=O)N(C)C)cc32)cc1 | inactive: -19.6% |  |
| CCOC(=O)c1cc(C)n(CC2CCC(C(=O)Nc3cccc(Cl)c3)CC2)c1C (stereo not given) | inactive: 2.11% |  |
| CCN(CC)c1ccc(NC(=O)CN2CCN(c3ccccc3OC)CC2)cc1 | inactive: 13.4% |  |
| Oc1c(C(c2ccccc2)N2CCOCC2)sc2nc(-c3ccco3)nn12 (stereo not given) | inactive: -0.391% |  |
| Cc1cc(C)cc(NC(=O)c2sc3nc4n(c(=O)c3c2C)N=C(c2ccccc2)CS4)c1 | inactive: 0.917% |  |
| Nc1c(C(=O)Nc2cccc(F)c2)nnn1-c1cccc(C(F)(F)F)c1 | inactive: -1.12% |  |
| CCOCCCNc1nc2c(S(=O)(=O)c3ccc(CC)cc3)nnn2c2ccc(Cl)cc12 | inactive: 0.502% |  |
| O=C(Cn1ncc2c3ccccc3n(Cc3cccc(Cl)c3)c2c1=O)NCCCN1CCCCC1 | inactive: 2.82% |  |
| Cc1ccc(CNC(=O)Cn2c(=O)cc(C)c3c(C)nn(-c4cccc(F)c4)c32)cc1 | inactive: -9.92% |  |
| Cc1ccc(C)c(N2CCN(S(=O)(=O)c3ccc(-c4cnc(C5CC5)o4)cc3)CC2)c1 | inactive: 13.2% |  |
| CCOc1ccccc1CN1CCc2nc(N3CCN(C)CC3)ncc2C1 | inactive: 12.3% |  |
| Cc1ccc(NC(=O)CSc2nc(-c3cccs3)nc3cc(=O)[nH]n23)cc1C | inactive: -3.77% |  |
| COc1ccc(-c2cn3cccnc3n2)cc1NC(=O)Nc1cc(C)ccc1C | inactive: -17.7% |  |
| O=C(NCCc1ccccc1)C1CCN(Cc2cc3ccccc3n2Cc2ccccc2)CC1 | inactive: -16.7% |  |

| SMILES | activity change, negative = inhibition | Potency |
| --- | --- | --- |
| CN1C(C(=O)c2ccccc2)=C(NC(=O)c2ccc(F)cc2)c2ccccc2S1(=O)=O | inactive: -17% |  |
| COc1ccc(COC(=O)C2=C(C)NC(=O)CC2c2cccc(Cl)c2Cl)cc1 (stereo not given) | inactive: -24.8% |  |
| CCOc1ccc(-c2cc(C(=O)NC(C)c3ccccc3)c3ccccc3n2)cc1 (stereo not given) | inactive: 5.19% |  |
| O=C(Nc1ccc(C(=O)N2CCN(c3ccccc3F)CC2)cc1)c1nsc2ccccc12 | inactive: 6.18% |  |
| O=C(NCCc1ccc(Cl)cc1)c1ccc2c(c1)nc1n2CCOC1 | inactive: 3.52% |  |
| CN(C)CCN(Cc1ccco1)C(=O)c1cc2c(s1)-c1ccccc1OC2 |  | active: 5.21 µM |
| COc1ccc(-c2onc(C)c2C)cc1S(=O)(=O)Nc1cccc(C#N)c1 | inactive: 2.81% |  |
| CCOC(=O)N1CCc2c(sc3c2c(=O)n(-c2ccc(F)cc2)c(=O)n3CC(=O)c2ccc(Cl)cc2)C1 | inactive: -14.6% |  |
| Cc1cccc(C(=O)NC2(C(F)(F)F)N=C(c3ccccc3)N(C3CCCCC3)C2=O)c1 (stereo not given) | inactive: 1.23% |  |
| CCc1ccc(NS(=O)(=O)c2ccc(-c3cc(C)no3)cc2)cc1 | inactive: -20.3% |  |
| CC(=O)C1=C(c2ccc(F)cc2)N(C(C)=O)n2c(nnc2C2CCCCC2)S1 | inactive: -5.24% |  |
| CCOc1ccc(C(=O)NCC(c2ccc(Cl)cc2)N2CCCCC2)cc1 (stereo not given) | inactive: -2.52% |  |
| Cc1cc(C)c(NC(=O)C(C)n2c(=O)cc(-c3ccccc3)c3c(C)nn(C)c32)c(C)c1 (stereo not given) | inactive: -0.925% |  |
| CCCCNc1ccc(-c2nc(-c3ccccn3)no2)cc1[N+](=O)[O-] | inactive: 1.33% |  |
| COc1ccc(-c2nnn3c2nc(NCc2ccc(C)cc2)c2ccccc23)cc1 | inactive: 7.41% |  |
| CCCNC(=O)CSc1c(CCC)cnc2c1c(=O)n(C)c(=O)n2C | inactive: 0.35% |  |
| O=C(CN1C(=O)C2(SCC(=O)N2c2cccc(F)c2)c2ccccc21)NCCc1ccccc1 (stereo not given) | inactive: -0.992% |  |
| CCOC(=O)c1cnc(N2CCN(c3cccc(C)c3C)CC2)c2ccccc12 | inactive: 0.721% |  |
| O=C(NCCc1csc(-c2cccnc2)n1)c1ccccc1 | inactive: 2.23% |  |
| Cc1ccccc1C(=O)OCc1cc(=O)n2nc(C3CCCCC3)sc2n1 | inactive: -18.2% |  |
| Cc1nnc2c(N3CCN(c4ccc(F)cc4)CC3)nc3ccc(C(=O)c4ccccc4)cc3n12 | inactive: 0.078% |  |
| CCOC(=O)c1cc(-c2ccc(OC)c(S(=O)(=O)NCc3ccccc3Cl)c2)on1 | inactive: 4.23% |  |
| CC1CCCCN1CCCNC(=O)CN1C(=O)CSc2ccc(S(=O)(=O)N3CCOCC3)cc21 (stereo not given) | inactive: 9.84% |  |
